Source: patent US7652041B2, “Cinnamide and hydrocinnamide derivatives with kinase inhibitory activity” (Millennium Pharmaceuticals, Inc., priority 2005, dated 2010)

Each molecule was assayed on A375 cells (assay: Phospho-ERK ELISA assay). Conditions: Homo sapiens, A-375, 3 hours with inhibitor, anti-p44/42MAPK antibody ELISA, normalized for protein content.
Format: cell-based
Procedure: Inhibition of Raf kinase activity in whole cell systems can be assessed by determining the decrease in phosphorylation of Raf kinase substrates. Any known Raf kinase substrate can be used to measure inhibition of Raf kinase activity in a whole cell system.
In a specific example, A375 cells were seeded in a 96-well cell culture plate (12×10^3 cells/100 μL/well) and incubated overnight at 37° C. Medium was removed, and cells were incubated with Raf kinase inhibitors for 3 hours at 37° C. Medium was removed, and cells were fixed with 4% paraformaldehyde for 15 minutes at room temperature.
Methanol was added for 15 min. Cells were removed and blocked with 10% sheep serum and 1% BSA in PBS overnight at 4° C. Cells were incubated with anti-p44/42MAPK antibody (1:100, Cell Signaling Technologies, #9101L) (20 μL/well) for one hour at room temperature. After washing with PBS three times, cells were stained with anti-rabbit horseradish peroxidase-linked antibody from donkey (1:100, Amersham Bioscience #NA934V) for 1 hour at room temperature. Cells were washed three times with 0.5% Tween-20 in PBS and twice with PBS. 3,3′,5,5′-Tetramethylbenzidine (TMB) liquid substrate system (Sigma, #T8665) (50 μL/well) was added, and cells were incubated for 30-45 minutes at room temperature. Optical density was read at 650 nm. Cells were then washed 3-5 times with PBS to remove color solution. Results were normalized for the protein content in each well using a BCA protein assay kit (Pierce).
`COC(=O)CCc1ccc(NC(=O)CCc2cccc(Oc3ccnc(C4=NCCN4)c3)c2)cc1C(F)(F)F` [Compound A-234, methyl 3-[4-{[3-(3-{[2-(4,5-dihydro-1H-imidazol-2-yl)pyridin-4-yl]oxy}phenyl)propanoyl]amino}-2-(trifluoromethyl)phenyl]propanoate] showed an IC50 of 10 to 25 µM.
Work on `COc1cc(NC(=O)CCc2cccc(Oc3ccnc(C4=NCCN4)c3)c2)cc(C(F)(F)F)c1` [Compound A-209, 3-(3-{[2-(4,5-dihydro-1H-imidazol-2-yl)pyridin-4-yl]oxy}phenyl)-N-[3-methoxy-5-(trifluoromethyl)phenyl]propanamide] yielded an IC50 of 1 to 10 µM.
In the case of `COC(=O)c1ccc(NC(=O)CCc2cccc(Oc3ccnc(C4=NCCN4)c3)c2)cc1C(F)(F)F` [Compound A-216, methyl 4-{[3-(3-{[2-(4,5-dihydro-1H-imidazol-2-yl)pyridin-4-yl]oxy}phenyl)propanoyl]amino}-2-(trifluoromethyl)benzoate], the IC50 is reported as 1 to 10 µM.
`CCN1CCN(CC(=O)Nc2cc(Oc3cccc(CCC(=O)Nc4ccc(Cl)c(C(F)(F)F)c4)c3)ccn2)CC1` [Compound A-192, N-[4-chloro-3-(trifluoromethyl)phenyl]-3-{3-[(2-{[(4-ethylpiperazin-1-yl)acetyl]amino}pyridin-4-yl)oxy]phenyl}propanamide] was tested, and the IC50 was 1 to 10 µM.
`Cc1ccc(C(F)(F)F)cc1NC(=O)CCc1cccc(Oc2ccnc(C3=NCCN3)c2)c1` [Compound A-189, 3-(3-{[2-(4,5-dihydro-1H-imidazol-2-yl)pyridin-4-yl]oxy}phenyl)-N-[2-methyl-5-(trifluoromethyl)phenyl]propanamide] was tested, and the IC50 was 1 to 10 µM.
Molecule `O=C(CCc1cccc(Oc2ccnc(C3=NCCN3)c2)c1)Nc1cccc(C2CC2)c1` [Compound A-76, N-(3-cyclopropylphenyl)-3-(3-{[2-(4,5-dihydro-1H-imidazol-2-yl)pyridin-4-yl]oxy}phenyl)propanamide] has an IC50 of 1 to 10 µM.
With `C#Cc1ccc(NC(=O)CCc2cccc(Oc3ccnc(C4=NCCN4)c3)c2)cc1C(F)(F)F` [Compound A-144, 3-(3-{[2-(4,5-dihydro-1H-imidazol-2-yl)pyridin-4-yl]oxy}phenyl)-N-[4-ethynyl-3-(trifluoromethyl)phenyl]propanamide] the IC50 was ≤ 1 µM.
`O=C(CCc1cccc(Oc2ccnc(C3=NCCN3)c2)c1)Nc1cc(OCCN2CCCC2)cc(C(F)(F)F)c1` [Compound A-220, 3-(3-{[2-(4,5-dihydro-1H-imidazol-2-yl)pyridin-4-yl]oxy}phenyl)-N-[3-(2-pyrrolidin-1-ylethoxy)-5-(trifluoromethyl)phenyl]propanamide] showed an IC50 of 1 to 10 µM.
`COc1ccc(NC(=O)CCc2cccc(Oc3ccnc(C4=NCCN4)c3)c2)cc1C(F)(F)F` [Compound A-128, 3-(3-{[2-(4,5-dihydro-1H-imidazol-2-yl)pyridin-4-yl]oxy}phenyl)-N-[4-methoxy-3-(trifluoromethyl)phenyl]propanamide] showed an IC50 of 1 to 10 µM.
Work on `N=C(NCc1cc(Oc2cccc(CCC(=O)Nc3ccc(Cl)c(C(F)(F)F)c3)c2)ccn1)c1ccccc1` [Compound A-153, N-[4-chloro-3-(trifluoromethyl)phenyl]-3-(3-{[2-({[imino(phenyl)methyl]amino}methyl)pyridin-4-yl]oxy}phenyl)propanamide] yielded an IC50 of 1 to 10 µM.
In the case of `CN(C)CCNC(=O)c1cc(Oc2cccc(CCC(=O)Nc3ccc(Cl)c(C(F)(F)F)c3)c2)ccn1` [Compound A-78, 4-[3-(3-{[4-chloro-3-(trifluoromethyl)phenyl]amino}-3-oxopropyl)phenoxy]-N-[2-(dimethylamino)ethyl]pyridine-2-carboxamide], the IC50 is reported as 10 to 25 µM.
In the case of `C[C@H]1CNC(c2cc(Oc3cccc(CCC(=O)Nc4ccc(Cl)c(C(F)(F)F)c4)c3)ccn2)=N1` [Compound A-122, N-[4-chloro-3-(trifluoromethyl)phenyl]-3-[3-({2-[(4S)-4-methyl-4,5-dihydro-1H-imidazol-2-yl]pyridin-4-yl}oxy)phenyl]propanamide], the IC50 is reported as 1 to 10 µM.
With `NCCc1cc(NC(=O)CCc2cccc(Oc3ccnc(C4=NCCN4)c3)c2)cc(C(F)(F)F)c1` [Compound A-148, N-[3-(2-aminoethyl)-5-(trifluoromethyl)phenyl]-3-(3-{[2-(4,5-dihydro-1H-imidazol-2-yl)pyridin-4-yl]oxy}phenyl)propanamide] the IC50 was 1 to 10 µM.
`O=C(CCc1ccc(Oc2ccnc(C3=NCCN3)c2)c(Cl)c1)Nc1ccc(Cl)c(C(F)(F)F)c1` [Compound A-127, 3-(3-chloro-4-{[2-(4,5-dihydro-1H-imidazol-2-yl)pyridin-4-yl]oxy}phenyl)-N-[4-chloro-3-(trifluoromethyl)phenyl]propanamide] was tested, and the IC50 was 1 to 10 µM.
With `CNC(=O)c1cc(Oc2ccc(CCC(=O)Nc3ccccc3)cc2)ccn1` [Compound A-12, 4-[4-(3-anilino-3-oxopropyl)phenoxy]-N-methylpyridine-2-carboxamide] the IC50 was 1 to 10 µM.
Work on `O=C(CCc1cccc(Oc2ccnc(-c3ncc[nH]3)c2)c1)Nc1ccc(Cl)c(C(F)(F)F)c1` [Compound A-105, N-[4-chloro-3-(trifluoromethyl)phenyl]-3-(3-{[2-(1H-imidazol-2-yl)pyridin-4-yl]oxy}phenyl)propanamide] yielded an IC50 of 10 to 25 µM.
Molecule `C[C@@H]1CNC(c2cc(Oc3cccc(CCC(=O)Nc4ccc(Cl)c(C(F)(F)F)c4)c3)ccn2)=N1` [Compound A-251, N-[4-chloro-3-(trifluoromethyl)phenyl]-3-[3-({2-[(4R)-4-methyl-4,5-dihydro-1H-imidazol-2-yl]pyridin-4-yl}oxy)phenyl]propanamide] has an IC50 of 1 to 10 µM.
Work on `CC(=O)Nc1cc(Oc2cccc(CCC(=O)Nc3cc(OCCN(C)C)cc(C(F)(F)F)c3)c2)ccn1` [Compound A-211, 3-(3-{[2-(acetylamino)pyridin-4-yl]oxy}phenyl)-N-[3-[2-(dimethylamino)ethoxy]-5-(trifluoromethyl)phenyl]propanamide] yielded an IC50 of 1 to 10 µM.
Work on `CC(C)(O)c1cccc(NC(=O)CCc2cccc(Oc3ccnc(C4=NCCN4)c3)c2)c1` [Compound A-104, 3-(3-{[2-(4,5-dihydro-1H-imidazol-2-yl)pyridin-4-yl]oxy}phenyl)-N-[3-(1-hydroxy-1-methylethyl)phenyl]propanamide] yielded an IC50 of 1 to 10 µM.
`C/C(=C\c1cccc(Oc2ccnc(C3=NCCN3)c2)c1)C(=O)Nc1cccc(C(C)(C)C)c1` [Compound B-139, (2E)-N-(3-tert-butylphenyl)-3-(3-{[2-(4,5-dihydro-1H-imidazol-2-yl)pyridin-4-yl]oxy}phenyl)-2-methylacrylamide] was tested, and the IC50 was ≤ 1 µM.
`CC1(C)OC(=O)c2ccc(NC(=O)CCc3cccc(Oc4ccnc(C5=NCCN5)c4)c3)cc21` [Compound A-169, 3-(3-{[2-(4,5-dihydro-1H-imidazol-2-yl)pyridin-4-yl]oxy}phenyl)-N-(3,3-dimethyl-1-oxo-1,3-dihydro-2-benzofuran-5-yl)propanamide] showed an IC50 of 1 to 10 µM.
`O=C(CCc1ccc(Oc2ccnc(C(=O)NCCN3CCCC3)c2)cc1)Nc1ccc(Cl)c(C(F)(F)F)c1` [Compound A-26] gave an IC50 of 10 to 25 µM.
For `CN(C)CCCc1ccc(NC(=O)CCc2cccc(Oc3ccnc(C4=NCCN4)c3)c2)cc1C(F)(F)F` [Compound A-244, 3-(3-{[2-(4,5-dihydro-1H-imidazol-2-yl)pyridin-4-yl]oxy}phenyl)-N-[4-[3-(dimethylamino)propyl]-3-(trifluoromethyl)phenyl]propanamide], the IC50 was 1 to 10 µM.
For `CN(C)CCNC(=O)c1cc(NC(=O)CCc2cccc(Oc3ccnc(C4=NCCN4)c3)c2)cc(C(F)(F)F)c1` [Compound A-190, 3-{[3-(3-{[2-(4,5-dihydro-1H-imidazol-2-yl)pyridin-4-yl]oxy}phenyl)propanoyl]amino}-N-[2-(dimethylamino)ethyl]-5-(trifluoromethyl)benzamide], the IC50 was 1 to 10 µM.
In the case of `O=C(CCc1ccc(Oc2ccnc(C3=NCCN3)c2)cc1)Nc1ccc(Cl)cc1` [Compound A-106, N-(4-chlorophenyl)-3-(4-{[2-(4,5-dihydro-1H-imidazol-2-yl)pyridin-4-yl]oxy}phenyl)propanamide], the IC50 is reported as 10 to 25 µM.
For `O=C(CCc1cccc(Oc2ccnc(C3=NCCN3)c2)c1)Nc1cc(OCCN2CCOCC2)cc(C(F)(F)F)c1` [Compound A-231, 3-(3-{[2-(4,5-dihydro-1H-imidazol-2-yl)pyridin-4-yl]oxy}phenyl)-N-[3-(2-morpholin-4-ylethoxy)-5-(trifluoromethyl)phenyl]propanamide], the IC50 was 1 to 10 µM.
In the case of `CC(C)(C)c1cccc(NC(=O)/C(=C/c2cccc(Oc3ccnc(C4=NCCN4)c3)c2)CO)c1` [Compound B-140, (E)-N-(3-tert-butylphenyl)-3-(3-(2-(4,5-dihydro-1H-imidazol-2-yl)pyridin-4-yloxy)phenyl)-2-(hydroxymethyl)acrylamide], the IC50 is reported as ≤ 1 µM.
Work on `O=C(CCc1cccc(Oc2ccnc(C3=NCCN3)c2)c1)Nc1cc(C(F)(F)F)ccc1Cl` [Compound A-89, N-[2-chloro-5-(trifluoromethyl)phenyl]-3-(3-{[2-(4,5-dihydro-1H-imidazol-2-yl)pyridin-4-yl]oxy}phenyl)propanamide] yielded an IC50 of 1 to 10 µM.
With `Cc1ccc(NC(=O)CCc2cccc(Oc3ccnc(C4=NCCN4)c3)c2)cc1C(F)(F)F` [Compound A-195, 3-(3-{[2-(4,5-dihydro-1H-imidazol-2-yl)pyridin-4-yl]oxy}phenyl)-N-[4-methyl-3-(trifluoromethyl)phenyl]propanamide] the IC50 was 1 to 10 µM.
